Measured values from PMC11995724, “Antibiotic target discovery by integrated phenotypic and activity-based profiling of electrophilic fragments” (Cell chemical biology, 2025).
Screen size: about 3,200 compounds; about 75 (2%) showed an effect of 50% or more. Some of the results follow.

System: T1, S. aureus MSSA476
T1 construct: MSSA476
Parameters: species or system S. aureus MSSA476 (TSB) or V. cholerae SAD30 (LB); 384-well bacterial growth screen at 25 uM, OD600 relative to DMSO control
Conditions: relative growth, OD600, TSB; 25 µM; inhibitor

Row | SMILES | % of control remaining [%]
1 | N#CC(=Cc1ccc(Cl)cc1)C(=O)NCc1ccccc1 [9-G13, N-benzyl-3-(4-chlorophenyl)-2-cyanoprop-2-enamide] | 65.0187
2 | Cc1cc(C(=O)CCl)c(C)n1-c1ccc(C(C)(C)C)cc1 [10-N20, 1-[1-(4-tert-butylphenyl)-2,5-dimethyl-1H-pyrrol-3-yl]-2-chloroethan-1-one] | 101.875
3 | CC(Cl)C(=O)N1CCCC(n2ccc(C(F)(F)F)n2)C1 (centres unmarked) [7-A08, 2-chloro-1-{3-[3-(trifluoromethyl)-1H-pyrazol-1-yl]piperidin-1-yl}propan-1-one] | 84.4584
4 | O=C(CCl)Cc1ccc(F)cc1 [10-G15, 1-chloro-3-(4-fluorophenyl)propan-2-one] | 117.5
5 | CC(Cl)C(=O)Nc1ccccc1Sc1ccccc1 (centres unmarked) [6-H10, 2-chloro-N-[2-(phenylsulfanyl)phenyl]propanamide] | 131.122
6 | O=C(CCl)N1CCN(C(=O)c2cn(C3CC3)nn2)CC1 [5-D03, 2-chloro-1-[4-(1-cyclopropyl-1H-1,2,3-triazole-4-carbonyl)piperazin-1-yl]ethan-1-one] | 73.224
7 | COc1ccc(NC(=O)C(C#N)=Cc2ccco2)cc1 [9-F19, 2-cyano-3-(furan-2-yl)-N-(4-methoxyphenyl)prop-2-enamide] | 86.2921
8 | CC(Cl)C(=O)N1CCC(c2cc3ccccc3[nH]2)C1 (centres unmarked) [7-O12, 2-chloro-1-[3-(1H-indol-2-yl)pyrrolidin-1-yl]propan-1-one] | 84.7724
9 | O=C(CCl)NC(c1ccc(F)c(C(F)(F)F)c1)C1CC1 (centres unmarked) [7-B22, 2-chloro-N-{cyclopropyl[4-fluoro-3-(trifluoromethyl)phenyl]methyl}acetamide] | 76.2951
10 | C=CCNC(=O)C(C#N)=Cc1ccc(OC)c(O)c1 [8-E21, 2-cyano-3-(3-hydroxy-4-methoxyphenyl)-N-(prop-2-en-1-yl)prop-2-enamide] | 100.913
11 | N#Cc1c(NC(=O)CCl)oc(-c2cccs2)c1-c1cccs1 [6-I09, 2-chloro-N-[3-cyano-4,5-bis(thiophen-2-yl)furan-2-yl]acetamide] | 37.9024
12 | CCC(NC(=O)CCl)c1c(C)noc1C (centres unmarked) [7-D03, 2-chloro-N-[1-(3,5-dimethyl-1,2-oxazol-4-yl)propyl]acetamide] | 95.4474
13 | C=CC(=O)NC1CCN(c2ccc(Cl)c(Cl)c2)C1 (centres unmarked) [1-C14, N-[1-(3,4-dichlorophenyl)pyrrolidin-3-yl]prop-2-enamide] | 102.681
14 | CN(Cc1ccc(-c2ccc(Cl)cc2)o1)C(=O)CCl [5-I13, 2-chloro-N-{[5-(4-chlorophenyl)furan-2-yl]methyl}-N-methylacetamide] | 146.812
15 | N#CC(=Cc1ccc(-c2ccccc2F)o1)C(=O)Nc1nccs1 [9-A08, 2-cyano-3-[5-(2-fluorophenyl)furan-2-yl]-N-(1,3-thiazol-2-yl)prop-2-enamide] | 79.7004
16 | O=C(CCl)Nc1nc2c(s1)CCCC2 [5-G15, 2-chloro-N-(4,5,6,7-tetrahydro-1,3-benzothiazol-2-yl)acetamide] | 107.468
17 | N#CC(=Cc1ccc2[nH]c(=O)[nH]c2c1)C(=O)NC1CCCC1 [9-E03, 2-cyano-N-cyclopentyl-3-(2-oxo-2,3-dihydro-1H-1,3-benzodiazol-5-yl)prop-2-enamide] | 93.1835
18 | C=CC(=O)NCc1cccc(-n2cccn2)n1 [1-M14, N-{[6-(1H-pyrazol-1-yl)pyridin-2-yl]methyl}prop-2-enamide] | 103.385
19 | N#CC(=Cc1ccc(O)c([N+](=O)[O-])c1)C(=O)NCc1ccccc1 [8-O05, N-benzyl-2-cyano-3-(4-hydroxy-3-nitrophenyl)prop-2-enamide] | 115.187
20 | C=CC(=O)Nc1cccc(C(=O)C(C)(C)C)c1 [2-I18, N-[3-(2,2-dimethylpropanoyl)phenyl]prop-2-enamide] | 104.439
21 | Cc1ccsc1CN(C(=O)CCl)C(C)C [7-P03, 2-chloro-N-[(3-methylthiophen-2-yl)methyl]-N-(propan-2-yl)acetamide] | 121.821
22 | C=CC(=O)N1CC[C@H](Oc2ccc(F)cc2)C1 [2-A15, 1-[(3S)-3-(4-fluorophenoxy)pyrrolidin-1-yl]prop-2-en-1-one] | 159.443

Row | SMILES | % of control remaining [%]
23 | COc1ccc(C=C(C#N)C(=O)Nc2ccccc2C(=O)O)cc1O [9-A18, 2-[2-cyano-3-(3-hydroxy-4-methoxyphenyl)prop-2-enamido]benzoic acid] | 91.0861
24 | C=CC(=O)NCc1ccnc(N2CCSCC2)c1 [1-I14, N-{[2-(thiomorpholin-4-yl)pyridin-4-yl]methyl}prop-2-enamide] | 123.077
25 | C=CC(=O)NC(C)(Cn1cccn1)C(N)=O (centres unmarked) [1-A20, N-{1-carbamoyl-1-[(1H-pyrazol-1-yl)methyl]ethyl}prop-2-enamide] | 125.187
26 | Cc1ccsc1C=C(C#N)C(=O)NC1CCCCC1C (centres unmarked) [8-G07, 2-cyano-N-(2-methylcyclohexyl)-3-(3-methylthiophen-2-yl)prop-2-enamide] | 80
27 | Cc1cc(C)c(NC(=O)C(C#N)=Cc2cc(F)ccc2F)c(C)c1 [8-A10, 2-cyano-3-(2,5-difluorophenyl)-N-(2,4,6-trimethylphenyl)prop-2-enamide] | 81.9917
28 | C=CC(=O)N1CCc2nn(C(C)C)c(=O)cc2C1 [3-B22, 6-(prop-2-enoyl)-2-(propan-2-yl)-2H,3H,5H,6H,7H,8H-pyrido[4,3-c]pyridazin-3-one] | 137.571
29 | N#CC(=Cc1cc(C#N)cs1)C(=O)NC(N)=O [8-F04, {2-cyano-2-[(4-cyanothiophen-2-yl)methylidene]acetyl}urea] | 77.3444
30 | O=C(CCl)NCC(=O)Nc1nccs1 [5-G22, 2-chloro-N-{[(1,3-thiazol-2-yl)carbamoyl]methyl}acetamide] | 86.3388
31 | CC(Cl)C(=O)Nc1ccc2c(c1)OCCCO2 (centres unmarked) [4-K10, 2-chloro-N-(3,4-dihydro-2H-1,5-benzodioxepin-7-yl)propanamide] | 112.053
32 | COc1ccc(N(Cc2cccs2)C(=O)CCl)cc1 [5-O17, 2-chloro-N-(4-methoxyphenyl)-N-[(thiophen-2-yl)methyl]acetamide] | 86.7031
33 | C=CC(=O)Nc1cc(S(=O)(=O)N2CCCCCC2)ccc1OC [1-A15, N-[5-(azepane-1-sulfonyl)-2-methoxyphenyl]prop-2-enamide] | 132.22
34 | CNC(=O)c1ccn(C2CCCN(C(=O)CCl)C2)n1 (centres unmarked) [5-I08, 1-[1-(2-chloroacetyl)piperidin-3-yl]-N-methyl-1H-pyrazole-3-carboxamide] | 84.5173
35 | CC(Cl)C(=O)N1CCN(c2nnnn2-c2ccccc2)CC1 (centres unmarked) [7-I12, 2-chloro-1-[4-(1-phenyl-1H-1,2,3,4-tetrazol-5-yl)piperazin-1-yl]propan-1-one] | 106.436
36 | C=CC(=O)N1CCN(S(=O)(=O)c2ccc(C(C)(C)C)cc2)CC1 [3-A19, 1-[4-(4-tert-butylbenzenesulfonyl)piperazin-1-yl]prop-2-en-1-one] | 138.964
37 | CC(Cl)C(=O)N1C[C@@H]2CCC[C@@]2(c2nc(-c3cnccn3)no2)C1 (mixture of isomers) [7-C03, rac-1-[(3aR,6aR)-3a-[3-(pyrazin-2-yl)-1,2,4-oxadiazol-5-yl]-octahydrocyclopenta[c]pyrrol-2-yl]-2-chloropropan-1-one] | 75.3532
38 | O=C(CCl)c1ccc2c(c1)CCN(C(=O)C(F)(F)F)C2 [10-E09, 1-[6-(2-chloroacetyl)-1,2,3,4-tetrahydroisoquinolin-2-yl]-2,2,2-trifluoroethan-1-one] | 20.625
39 | CC(Cl)C(=O)N1C2CCC1CC(O)(Cc1ccc(F)cc1F)C2 (centres unmarked) [7-G18, 2-chloro-1-{3-[(2,4-difluorophenyl)methyl]-3-hydroxy-8-azabicyclo[3.2.1]octan-8-yl}propan-1-one] | 100.785
40 | CC(C)c1cccc(C(C)C)c1NC(=O)CCl [5-G13, N-[2,6-bis(propan-2-yl)phenyl]-2-chloroacetamide] | 107.468
41 | CC(Cc1ccc(Cl)s1)NC(=O)CCl (centres unmarked) [5-N11, 2-chloro-N-[1-(5-chlorothiophen-2-yl)propan-2-yl]acetamide] | 85.2459
42 | COc1ccc(C=C(C#N)C(=O)Nc2cccnc2)cc1OC [8-M05, 2-cyano-3-(3,4-dimethoxyphenyl)-N-(pyridin-3-yl)prop-2-enamide] | 123.154
43 | COc1ccc(S(=O)(=O)N2CCCCC2)cc1NC(=O)CCl [6-G13, 2-chloro-N-[2-methoxy-5-(piperidine-1-sulfonyl)phenyl]acetamide] | 107.22
44 | Cn1ccc(C(=O)CCl)c1 [10-D08, 2-chloro-1-(1-methyl-1H-pyrrol-3-yl)ethan-1-one] | 111.563
